Test results as given in patent US20250313546A1, “NUCLEIC ACID BINDERS” (UNIVERSITY OF STRATHCLYDE, priority 2022, published 2025).

How the values were obtained:
[1] = system: T. b. brucei Lister S427 (a drug-sensitive wild type); assay: Resazurin-based (Alamar blue) drug sensitivity assay; conditions: for IC50: Trypanosoma brucei, read-out: IC50 T.b. brucei; for T.b. brucei Selectivity Indices (SI, IC50 (μM)/IC50 (μM)) Group / T.b. brucei Selectivity Index (SI, IC50 (μM)/IC50 (μM)), numeric value: cytotoxicity against HEK293 cells vs T.b. brucei
[2] = system: T. congolense IL3000 (a drug sensitive wild type); assay: as above; conditions: Trypanosoma congolense, read-out: IC50 T. congo
Protocol: A detailed description of the procedure for evaluating activity against trypanosomes, using an Alamar Blue (resazurin) assay, is described below.
The BSF T. congolense IL3000 and a clonal line, 6C3, adapted from IL3000 in vitro with diminazene aceturate (Merck), leading to a ˜10-fold resistance, were cultured in TCBSF3 medium without red blood cells (see Zheoat, A. M. et al., 2021, Pathogens (Basel, Switzerland), 10(2), 175). Dulbecco's minimum essential medium (MEM) was supplemented with 25 mM (4-(2-hydroxyethyl)-1-piperazineethanesulfonic acid) (HEPES), 26 mM NaHCO3, 5.6 mM Dd-glucose, 1 mM sodium pyruvate, 40 μM adenosine, 100 μM hypoxanthine, 16.5 μM thymidine, and 25 μM bathocuproinedisulfonic acid disodium salt. To this basal medium were added β-mercaptoethanol (0.0014% v/v), 1.6 mM glutamine, 100 units/mL penicillin/0.1 mg/mL streptomycin (Gibco), 20% goat serum (Gibco), and 5% Serum Plus (SAFC Bi-osciences) (see Coustou, V. et al., 2010, PLoS Negl. Trop. Dis., 4, e618 and Giordani, F. et al., J. Med. Chem., 2019, 62, 3021-3035). The BSF T. congolense IL3000 WT and its derived line, 6C3, were cultured at 34° C. in a humidified, 5% CO2 environment.
A resazurin-based (Alamar blue) drug sensitivity assay was used to assess and compare the activity of standard trypanocides in the different cell lines investigated (see Gould, M. K. et al., Anal. Biochem., 2008, 382, 87-93). Briefly, 23 doubling dilutions of the test compound of the invention, starting at 100 μM, and a compound-free control were prepared in 100 μL medium in a 96-well white plate (Greiner Bio-one, Frickenhausen, Germany). The cells were adjusted to 2×10^4 cells/mL for T. b. brucei and T. equiperdum; 4×10^4 cells/mL for T. evansi; and 5×10^5 cells/mL for T. congolense in the appropriate medium. 100 μL of the adjusted cells was then added to the wells containing drug dilutions and incubated for 48 h under respective culture condition. Thereafter, 20 μL of 125 mg/mL resazurin sodium dye was added, and the plate was incubated for a further 24 h. The resorufin fluorescence in each well of the plate was determined and used to calculate the Half maximal effective concentration (EC50) of the drug, as described in Carruthers, L. V. et al., Mol. Microbiol., 2021, 116, 564-588.

C/N=C(/CCNC(=O)c1cc(NC(=O)c2cc(NC(=O)c3ccc(/C=C/c4ccc5ccccc5c4)cc3)cn2C)cn1C)NC [Ia7, 1-methyl-4-(1-methyl-4-(4-((E)-2-(naphthalen-2-yl)vinyl)benzamido)-1H-pyrrole-2-carboxamido)-N—((Z)-3-(methylamino)-3-(methylimino)propyl)-1H-pyrrole-2-carboxamide]
IC50 [1]: 250 to 1000 nM
IC50 [2]: < 50 nM

Cn1cc(NC(=O)c2ccc(/C=C/c3cnc4ccccc4c3)cc2)cc1C(=O)Nc1cc(C(=O)N2CCCCC2)n(C)c1 [IVb1, (E)-1-methyl-N-(1-methyl-5-(piperidine-1-carbonyl)-1H-pyrrol-3-yl)-4-(4-(2-(quinolin-3-yl)vinyl)benzamido)-1H-pyrrole-2-carboxamide]
T.b. brucei Selectivity Indices (SI, IC50 (μM)/IC50 (μM)) Group ([1]; Amides): C (Group C: 1.5 < SI <= 3)
IC50 [1]: 250 to 1000 nM
IC50 [2]: > 1000 nM

CCCC[N+](C)(C)CCNC(=O)c1cc(NC(=O)c2cc(NC(=O)c3ccc(/C=C/c4cnc5ccccc5c4)cc3)cn2C)cn1C [Ic3, (E)-N,N-dimethyl-N-(2-(1-methyl-4-(1-methyl-4-(4-(2-(quinolin-3-yl)vinyl)benzamido)-1H-pyrrole-2-carboxamido)-1H-pyrrole-2-carboxamido)ethyl)butan-1-aminium]
T.b. brucei Selectivity Indices (SI, IC50 (μM)/IC50 (μM)) Group ([1]; Quaternary ammoniums): C (Group C: 80 < SI <= 120)
IC50 [1]: 50 to 250 nM
IC50 [2]: < 50 nM

Cn1cc(NC(=O)c2cc(NC(=O)c3ccc(/C=C/c4cnc5ccccc5c4)cc3)cn2C)cc1C(=O)NCCN1CCOCC1 [Ref-3, (E)-1-methyl-4-(1-methyl-4-(4-(2-(quinolin-3-yl)vinyl)benzamido)-1H-pyrrole-2-carboxamido)-N-(2-morpholinoethyl)-1H-pyrrole-2-carboxamide, reference compound]
T.b. brucei Selectivity Indices (SI, IC50 (μM)/IC50 (μM)) Group ([1]; Alkyl Amidines and NH Pyrroles): A (Group A: SI < 70)
T.b. brucei Selectivity Indices (SI, IC50 (μM)/IC50 (μM)) Group ([1]; Amides): A (Group A: SI < 0.7)

CCCCCCCCC[N+](C)(C)CCNC(=O)c1cc(NC(=O)c2cc(NC(=O)c3ccc(/C=C/c4cnc5ccccc5c4)cc3)cn2C)cn1C [Ic8, (E)-N,N-dimethyl-N-(2-(1-methyl-4-(1-methyl-4-(4-(2-(quinolin-3-yl)vinyl)benzamido)-1H-pyrrole-2-carboxamido)-1H-pyrrole-2-carboxamido)ethyl)nonan-1-aminium]
T.b. brucei Selectivity Indices (SI, IC50 (μM)/IC50 (μM)) Group ([1]; Quaternary ammoniums): D (Group D: SI > 120)
IC50 [1]: < 50 nM
IC50 [2]: < 50 nM

CC(C)/N=C(\N)CCNC(=O)c1cc(NC(=O)c2cc(NC(=O)c3ccc(/C=C/c4ccc5nonc5c4)cc3)cn2C)cn1C [Ia13, N—((Z)-3-amino-3-(isopropylimino)propyl)-4-(4-(4-((E)-2-(benzo[c][1,2,5]oxadiazol-5-yl)vinyl)benzamido)-1-methyl-1H-pyrrole-2-carboxamido)-1-methyl-1H-pyrrole-2-carboxamide]
T.b. brucei Selectivity Indices (SI, IC50 (μM)/IC50 (μM)) Group ([1]; Alkyl Amidines and NH Pyrroles): D (Group D: SI > 300)
IC50 [1]: < 50 nM
T.b. brucei Selectivity Index (SI, IC50 (μM)/IC50 (μM)), numeric value [1]: 922
IC50 [2]: < 50 nM

[H]/N=C(\CCNC(=O)c1cc(NC(=O)c2cc(NC(=O)c3ccc(C=Cc4ccc5nonc5c4)cc3)cn2C)cn1C)NC [Ia3, (E)-4-(4-(2-(benzo[c][1,2,5]oxadiazol-5-yl)vinyl)benzamido)-N-(5-((3-imino-3-(methylamino)propyl)carbamoyl)-1-methyl-1H-pyrrol-3-yl)-1-methyl-1H-pyrrole-2-carboxamide]
IC50 [1]: 250 to 1000 nM
IC50 [2]: < 50 nM

[H]/N=C(\CCNC(=O)c1cc(NC(=O)c2cc(NC(=O)c3ccc(C=Cc4ccc(C#N)cc4)cc3)cn2C)cn1C)NC(C)C [Ia17, (E)-4-(4-(4-cyanostyryl)benzamido)-N-(5-((3-imino-3-(isopropylamino)propyl)carbamoyl)-1-methyl-1H-pyrrol-3-yl)-1-methyl-1H-pyrrole-2-carboxamide]
IC50 [1]: 250 to 1000 nM
IC50 [2]: 250 to 1000 nM

CCCCCCCCCCCCCCCC[N+](C)(C)CCNC(=O)c1cc(NC(=O)c2cc(NC(=O)c3ccc(/C=C/c4cnc5ccccc5c4)cc3)cn2C)cn1C [Ic15, (E)-N,N-dimethyl-N-(2-(1-methyl-4-(1-methyl-4-(4-(2-(quinolin-3-yl)vinyl)benzamido)-1H-pyrrole-2-carboxamido)-1H-pyrrole-2-carboxamido)ethyl)hexadecan-1-aminium]
IC50 [1]: > 1000 nM
IC50 [2]: > 1000 nM

CCCCNC(=O)c1cc(NC(=O)c2cc(NC(=O)c3ccc(/C=C/c4cnc5ccccc5c4)cc3)cn2C)cn1C [IVa5, (E)-N-butyl-1-methyl-4-(1-methyl-4-(4-(2-(quinolin-3-yl)vinyl)benzamido)-1H-pyrrole-2-carboxamido)-1H-pyrrole-2-carboxamide]
T.b. brucei Selectivity Indices (SI, IC50 (μM)/IC50 (μM)) Group ([1]; Amides): D (Group D: SI > 3)
IC50 [1]: 250 to 1000 nM
T.b. brucei Selectivity Index (SI, IC50 (μM)/IC50 (μM)), numeric value [1]: 6
IC50 [2]: 250 to 1000 nM

COc1ccc(/C=C/c2ccc(C(=O)Nc3cc(C(=O)Nc4cc(C(=O)NCCN5CCOCC5)n(C)c4)n(C)c3)cn2)cc1 [Ref-2, reference compound]
T.b. brucei Selectivity Indices (SI, IC50 (μM)/IC50 (μM)) Group ([1]; Alkyl Amidines and NH Pyrroles): A (Group A: SI < 70)

CCNC(=N)CCNC(=O)c1cc(NC(=O)c2cc(NC(=O)c3ccc(/C=C/c4cccc(OC)c4)cc3)cn2C)cn1C [Ia22, (E)-N-(3-(ethylamino)-3-iminopropyl)-4-(4-(4-(3-methoxystyryl)benzamido)-1-methyl-1H-pyrrole-2-carboxamido)-1-methyl-1H-pyrrole-2-carboxamide]
IC50 [1]: 250 to 1000 nM
IC50 [2]: < 50 nM

CCCCCCCCCCCCCCCCCC[N+](C)(C)CCNC(=O)c1cc(NC(=O)c2cc(NC(=O)c3ccc(/C=C/c4cnc5ccccc5c4)cc3)cn2C)cn1C [Ic17, (E)-N,N-dimethyl-N-(2-(1-methyl-4-(1-methyl-4-(4-(2-(quinolin-3-yl)vinyl)benzamido)-1H-pyrrole-2-carboxamido)-1H-pyrrole-2-carboxamido)ethyl)octadecan-1-aminium]
IC50 [1]: > 1000 nM
IC50 [2]: > 1000 nM

CNC(=N)CCNC(=O)c1cc(NC(=O)c2cc(NC(=O)c3ccc(/C=C/c4ccc(C(F)(F)F)cc4)cc3)cn2C)cn1C [Ia2, (E)-N-(3-imino-3-(methylamino)propyl)-1-methyl-4-(1-methyl-4-(4-(4-(trifluoromethyl)styryl)benzamido)-1H-pyrrole-2-carboxamido)-1H-pyrrole-2-carboxamide]
IC50 [1]: > 1000 nM
IC50 [2]: 50 to 250 nM

Cn1cc(NC(=O)c2ccc(/C=C/c3cnc4ccccc4c3)cc2)cc1C(=O)Nc1cc(C(=O)N2CCSCC2)n(C)c1 [IVb2, (E)-1-methyl-N-(1-methyl-5-(thiomorpholine-4-carbonyl)-1H-pyrrol-3-yl)-4-(4-(2-(quinolin-3-yl)vinyl)benzamido)-1H-pyrrole-2-carboxamide]
T.b. brucei Selectivity Indices (SI, IC50 (μM)/IC50 (μM)) Group ([1]; Amides): C (Group C: 1.5 < SI <= 3)
IC50 [1]: 250 to 1000 nM
IC50 [2]: > 1000 nM

Cn1cc(NC(=O)c2ccc(/C=C/c3cnc4ccccc4c3)cc2)cc1C(=O)Nc1cc(C(=O)N2CCCCCC2)n(C)c1 [IVb3, (E)-N-(5-(azepane-1-carbonyl)-1-methyl-1H-pyrrol-3-yl)-1-methyl-4-(4-(2-(quinolin-3-yl)vinyl)benzamido)-1H-pyrrole-2-carboxamide]
T.b. brucei Selectivity Indices (SI, IC50 (μM)/IC50 (μM)) Group ([1]; Amides): D (Group D: SI > 3)
IC50 [1]: 250 to 1000 nM
T.b. brucei Selectivity Index (SI, IC50 (μM)/IC50 (μM)), numeric value [1]: 6
IC50 [2]: > 1000 nM

COc1cccc(/C=C/c2ccc(C(=O)Nc3cc(C(=O)Nc4cc(C(=O)NCCC(=N)N)n(C)c4)n(C)c3)cc2)c1 [Ref-5, reference compound]
T.b. brucei Selectivity Indices (SI, IC50 (μM)/IC50 (μM)) Group ([1]; Alkyl Amidines and NH Pyrroles): A (Group A: SI < 70)

CN(C)CCNC(=O)c1cc(NC(=O)c2cc(NC(=O)c3ccc(/C=C/c4cnc5ccccc5c4)cc3)cn2C)cn1C [Ref-7, (E)-N-(2-(dimethylamino)ethyl)-1-methyl-4-(1-methyl-4-(4-(2-(quinolin-3-yl)vinyl)benzamido)-1H-pyrrole-2-carboxamido)-1H-pyrrole-2-carboxamide, reference compound]
T.b. brucei Selectivity Indices (SI, IC50 (μM)/IC50 (μM)) Group ([1]; Alkyl Amidines and NH Pyrroles): A (Group A: SI < 70)
T.b. brucei Selectivity Indices (SI, IC50 (μM)/IC50 (μM)) Group ([1]; Quaternary ammoniums): A (Group A: SI < 40)

Cn1cc(NC(=O)c2cc(NC(=O)c3ccc(/C=C/c4ccc(C(F)(F)F)cc4)cc3)cn2C)cc1C(=O)NCCC(=N)N [Ref-6, reference compound]
T.b. brucei Selectivity Indices (SI, IC50 (μM)/IC50 (μM)) Group ([1]; Alkyl Amidines and NH Pyrroles): A (Group A: SI < 70)

COc1cccc(/C=C/c2ccc(C(=O)Nc3cc(C(=O)Nc4cc(C(=O)NCCN5CCOCC5)n(C)c4)n(C)c3)cc2)c1 [Ref-1, reference compound]
T.b. brucei Selectivity Indices (SI, IC50 (μM)/IC50 (μM)) Group ([1]; Alkyl Amidines and NH Pyrroles): A (Group A: SI < 70)
